Measurements published in publication PMC4336329 (PLoS ONE, 2015).
Among all 310,000 compounds or so, about 14,000 (4.5%) showed an effect of 50% or more. Effects have a minus sign here. The list shows a part of the results.

Each molecule was assayed against human ether-à-go-go-related gene (hERG) potassium channel (human, UniProt Q12809) (assay: primary screen, population patch clamp on CHO cells stably expressing hERG).
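Further: peak tail current of the secondary pulse compared with the same well before compound.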

Sequence of human ether-à-go-go-related gene (hERG) potassium channel (Q12809 whole entry, looked up): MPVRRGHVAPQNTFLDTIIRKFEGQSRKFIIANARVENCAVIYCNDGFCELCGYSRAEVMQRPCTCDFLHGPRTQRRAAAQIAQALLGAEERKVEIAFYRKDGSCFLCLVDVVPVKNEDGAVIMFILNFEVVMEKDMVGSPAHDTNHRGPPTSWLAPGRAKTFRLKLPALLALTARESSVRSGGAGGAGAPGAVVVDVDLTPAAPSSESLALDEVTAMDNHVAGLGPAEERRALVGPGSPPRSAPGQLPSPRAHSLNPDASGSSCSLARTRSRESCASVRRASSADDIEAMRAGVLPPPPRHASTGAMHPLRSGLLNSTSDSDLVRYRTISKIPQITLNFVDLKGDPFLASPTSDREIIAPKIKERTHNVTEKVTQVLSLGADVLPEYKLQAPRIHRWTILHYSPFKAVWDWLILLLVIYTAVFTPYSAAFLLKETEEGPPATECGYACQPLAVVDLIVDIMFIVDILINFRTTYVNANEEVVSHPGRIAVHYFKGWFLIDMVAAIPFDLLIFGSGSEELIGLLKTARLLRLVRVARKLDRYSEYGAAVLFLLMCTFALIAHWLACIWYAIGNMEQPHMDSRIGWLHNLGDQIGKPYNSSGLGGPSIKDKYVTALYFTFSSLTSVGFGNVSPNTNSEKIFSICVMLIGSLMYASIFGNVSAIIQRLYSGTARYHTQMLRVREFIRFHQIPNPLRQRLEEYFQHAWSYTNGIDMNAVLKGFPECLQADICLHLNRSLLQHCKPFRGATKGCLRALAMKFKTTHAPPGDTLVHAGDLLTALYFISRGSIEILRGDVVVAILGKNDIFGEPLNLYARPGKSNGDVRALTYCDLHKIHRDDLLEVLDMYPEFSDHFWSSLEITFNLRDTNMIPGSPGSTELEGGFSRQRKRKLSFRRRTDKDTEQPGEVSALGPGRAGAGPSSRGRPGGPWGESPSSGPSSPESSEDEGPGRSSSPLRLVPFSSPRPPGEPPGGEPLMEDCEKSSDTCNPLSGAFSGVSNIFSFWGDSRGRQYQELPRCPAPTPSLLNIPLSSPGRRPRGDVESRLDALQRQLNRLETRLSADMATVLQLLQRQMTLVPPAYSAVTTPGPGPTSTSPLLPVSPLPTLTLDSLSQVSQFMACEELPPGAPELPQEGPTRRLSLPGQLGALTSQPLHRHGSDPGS

SMILES	hERG current change (%, negative = inhibition) at 10uM [%]
COc1ccccc1C(=O)N/C(=C\c1ccccc1)C(=O)NC(Cc1ccccc1)C(=O)O (centres unmarked)	13
O=C(COC(=O)c1ccc(Cl)cc1O)NC(=O)C1CCCCC1	13.1
COc1ccc(C(=O)CSc2nc(C)cc(=O)[nH]2)cc1C	2.62
N#CCC(=O)Nc1ccc(C(=O)OCC(=O)NC2CCCCCC2)cc1	14.9
CN1CCN(S(=O)(=O)c2cc([N+](=O)[O-])ccc2N2CCCCCC2)CC1	-16.9
COc1cc(/C=N/O)ccc1OCc1ccc([N+](=O)[O-])cc1	-23.5
CC(=O)c1cccc(NC(=O)c2cc(S(=O)(=O)N3CCOCC3)cs2)c1	-9.79
CCC(CC)NC(=O)c1cc2c(C)nn(Cc3ccccc3Cl)c2s1	10.9
NNc1nc(-c2ccccc2)cc(-c2ccccc2)n1	16.2
CNS(=O)(=O)c1cccc(C(=O)OCC(=O)N(Cc2ccccc2)C(C)(C)C)c1	-4.86
Cc1nc(NCCc2ccccc2)c(C#N)c(C)c1[N+](=O)[O-]	6.5
O=C1N(Cc2cccnc2)C[C@@H]2C[C@@H](c3ccc4nsnc4c3)N3CCC[C@@]123	-11.3
N#Cc1c(/N=C/c2ccco2)sc2c1CCCCC2	1.96
Br.CCCCC1(C(=O)OCC)CC(CSC(=N)N)OC1=O (centres unmarked)	-0.297
CCc1cc(C(=O)OC)c(NC(=O)CCC(=O)O)s1	5.39
COc1ccc(Cc2noc(CN3CCN(c4ccc(Cl)cn4)CC3)n2)cc1OC	-33.6
Cc1n[nH]c(C)c1Sc1ccccc1N=Cc1cc(Cl)cc([N+](=O)[O-])c1O	-10.9
CCN1CCN(C(=O)CN(c2ccccc2C)S(C)(=O)=O)CC1	6.9
FC(F)(F)c1ccc(CN2CCCCCC2)cc1	-24.4
O=C(CCCC1=NS(=O)(=O)c2ccccc2N1)OCc1ccc(Cl)cc1	-10
COc1ccccc1S(=O)(=O)Cc1ccc(C(=O)NCc2ccc3c(c2)OCO3)o1	-1.87
N=c1c(C(=O)NCc2ccc(F)cc2)cc2c(=O)n3ccccc3nc2n1CC1CCCO1 (centres unmarked)	-77.4
COC(=O)c1c(NC(=O)c2ccccc2F)sc2c1C(C(=O)OC)CC2 (centres unmarked)	9.38

SMILES	hERG current change (%, negative = inhibition) at 10uM [%]
O=C(NCC(c1cccs1)N1CCOCC1)c1cc(S(=O)(=O)N2CCOCC2)c(Cl)cc1Cl (centres unmarked)	-9.54
CCC(C)NC(=O)c1cc(-c2ccccc2O)on1 (centres unmarked)	7.77
COc1cc(/C=C(/C#N)C(=O)NCCCc2ccccc2)ccc1OCC(=O)O	10.8
CC(C(=O)c1ccc(-c2ccccc2)cc1)[n+]1cccc(NC(=O)c2ccccc2)c1.[Br-] (centres unmarked)	-48.9
C=CC(=O)N=c1sc2ccccc2n1-c1ccccc1	-6.08
Cc1nc2[nH]onc2c2nccc(=O)c12	16.1
O=C(NO)c1ccc(C(=O)N(C2CCCCC2)C2CCCCC2)cc1	-8.38
Cc1cc(N2C(=O)c3ccccc3C2=O)n(C)n1	9.7
CCCSc1nc2c(c(=O)n(C)c(=O)n2C)n1Cc1ccc(C)cc1	-3.8
CC(C)Oc1cccc(C(=O)NC(=S)Nc2cccnc2)c1	-31.2
COc1ccc(Cc2nnc(SCC(=O)Nc3nc(C)cs3)o2)cc1	7.7
Cc1cc(C)n(-c2ccc(NC(=O)C3CCCCN3C(=O)c3sccc3C)cc2)n1 (centres unmarked)	14.5
O=C(Nc1ccccc1)Nc1ccccc1C(=O)NCC1CC1	9.84
COc1ccc(CC(=O)OCC(=O)c2ccc(OC)cc2)cc1	2.43
CNc1snc(C)c1C(=O)OCC(=O)c1ccc(Cl)cc1	7.08
Cc1ccccc1NC(=S)N1CCCCCC1	11.7
Cc1cc2ccccc2n1CCNC(=O)C1CC1	-14.7
COCCN(C(=O)COC(=O)c1ccc(Cl)nc1)c1c(N)n(Cc2ccccc2)c(=O)[nH]c1=O	18
Cl.N=c1n(CCO)c2ccccc2n1Cc1ccccc1Cl	-20
Cc1ccc(S(=O)(=O)CCC(=O)NCc2ccccc2)cc1	3.61
c1ccc(CCc2nc3ccccc3[nH]2)cc1	4.83
Cc1sc2ncnc(Sc3ccccc3C(=O)Nc3ccccc3Cl)c2c1C	11.5
CCCn1c2ccccc2c2cnn(CC(=O)NCCN(C)C)c(=O)c21	-60.1

SMILES	hERG current change (%, negative = inhibition) at 10uM [%]
CCOC(=O)CN(C(=O)COC(=O)C1(c2ccccc2)CC1)c1ccc(F)cc1	-0.464
CC1(C)Cc2c(sc3nc(SCC(=O)O)[nH]c(=O)c23)CO1	6.51
O=C(NC(Cc1ccccc1)C(=O)O)/C(=C/c1ccc(Cl)cc1)NC(=O)c1ccco1 (centres unmarked)	18.3
CCn1c(=O)c(C(=O)NCc2ccccn2)c(O)c2ccccc21	6.29
COc1ccccc1-c1ccc(SCc2ccc(F)cc2)nn1	-5.58
CCn1nc(-c2ccccc2)nc2c(=O)n(C)c(=O)nc1-2	-27.6
CCOC(=O)c1cc2c(=O)n3ccccc3nc2n(CC2CCCO2)c1=NC(C)=O (centres unmarked)	-1.13
COc1cc2nc(N3CCN(C(=O)c4ccco4)CC3)nc(N)c2cc1OC.Cl	-35.9
CCOC(=O)CC(=O)CSc1nnc(Cn2c(=O)sc3ccccc32)n1C	-4.61
O=C(CCS(=O)(=O)c1ccc(Cl)cc1)Nc1nnc(-c2ccco2)o1	6.36
Cc1nc(SCC(=O)N2CCC(Cc3ccccc3)CC2)[nH]c(=O)c1C	-25.4
COc1ccc(C(=O)N2CCN(C(=O)Cc3ccccc3)CC2)cc1.O=C(O)C(=O)O	0.269
COc1ccc(CCN(C)C2CCCN(S(=O)(=O)c3ccccc3)C2)cc1OC (centres unmarked)	-77.2
Oc1ccccc1N1CCN(c2ncccn2)CC1	10.4
Cn1c(SCCC#N)nnc1-c1ccc(F)cc1	10.1
O=C(Cn1ccnc1[N+](=O)[O-])NCc1ccccc1	0.861
O=C(C1CC1)N1CCc2cc(S(=O)(=O)NCC3COc4ccccc4O3)ccc21 (centres unmarked)	6.27
CC(C)c1cccc(C(C)C)c1OC(=O)[C@H]1OC(C(C)(C)C)=C[C@@H]1c1ccccc1	-6.97
O=C(COc1ccc(Cl)cc1Cl)NC(=S)Nc1ccc(CN2CCOCC2)cc1	-30.9
COc1ccc(CN(CCC#N)CCC2(c3ccccc3)CC(C)N(C)CC2C)cc1OC.Cl (centres unmarked)	-8.36
Cc1ccc(NC(=O)COC(=O)CCc2nc3ccccc3c(=O)[nH]2)cc1Cl	28.9
Oc1ccc(-c2cn3c(n2)SCC3)cc1O	-6.17
O=S(=O)(c1ccc(F)cc1)N1CCN(CCc2ccccc2)CC1	-8.48

SMILES	hERG current change (%, negative = inhibition) at 10uM [%]
CC(C)=CCN1CCN(CCCn2cccn2)CC1CCO (centres unmarked)	-11.8
COc1ccc(/C=N/N2CCN(Cc3ccc(C)cc3)CC2)cc1Br	15.5
O=C(N/N=C\c1ccc(-c2ccc([N+](=O)[O-])cc2)o1)C1COc2ccccc2O1 (centres unmarked)	-7.36
O=C(NC1CCN(C(=O)Nc2cccc(Cl)c2)CC1)c1ccco1	-20.5
Cc1cccc(CCNC(=O)C2CCCN(c3ncnc4c3nc3n4CCCCC3)C2)c1 (centres unmarked)	-59.8
Nc1c(Cl)cc(Cl)cc1C(=O)OCC(=O)N1CCCC1=O	3.97
COc1ccc(C(=O)OCC(=O)Nc2sccc2C(N)=O)cc1OC	-0.284
CCOc1ccc(NC(=O)CSc2nc(-c3cccs3)cc(C(F)(F)F)n2)c([N+](=O)[O-])c1	-2.63
CCNC(=S)N1CCN(CC(=O)Nc2ccc(Br)cc2)CC1	-61.4
CC1CN(S(=O)(=O)Cc2ccccc2)CC(C)O1 (centres unmarked)	-10.4
COc1cccc(C2c3[nH]c4ccccc4c3CCN2C(=O)c2ccccc2F)c1OC (centres unmarked)	25.5
COC(=O)c1c(Oc2nc(OC)cc(OC)n2)cccc1Oc1nc(OC)cc(OC)n1	-8.4
COc1ccccc1NC(=S)NCCC(c1ccccc1)c1ccccc1	6.56
Cc1ccc(NC(=O)CSc2nc3sc(C)cc3c(=O)n2C)cc1	-5.79
CCN1C(=O)C(O)(CC(=O)c2c(C)coc2C)c2ccccc21 (centres unmarked)	23.4
COc1ccc(NC(=O)Nc2nnc(-c3ccccc3SCc3ccccc3)s2)cc1	13.6
CC(C)C(=O)N1CCN(c2ccccc2NC(=O)c2cccc3ccccc23)CC1	-32.9
CCc1cccc(C)c1NC(=O)C1=C(C(=O)O)CCCC1	2.25
O=C1N[C@@H](Cc2cnc[nH]2)C(=O)N2CCC[C@@H]12	25.3
C=CCC(C=C)[N+]1(CC(=O)OC)CCCCC1.[Br-] (centres unmarked)	41.8
